42 compounds from ChEMBL document CHEMBL4888484, “Replenishing the malaria drug discovery pipeline: Screening and hit evaluation of the MMV Hit Generation Library 1 (HGL1) against asexual blood stage Plasmodium falciparum ,using a nano luciferase reporter read-out” (2022) can be followed below.

Screen size: about 150,000 compounds; about 540 (0.36%) showed an effect of 50% or more. The list shows a part of the results.

In the experiment the test system is Plasmodium falciparum. The experiment in a line: Primary screen in NF54 nanoGlo assay, in single point, at 2uM, 72h; a lower Z score goes with more inhibition. It counts as functional, Erythrocyte. To be noted: timepoint 72 hour.
On to `CC(=O)Nc1ccc(CN[C@H]2C[C@H](c3ccc(Cl)c(Cl)c3)C2)cc1`, for which the “% Inhibition” value is given as -3% and the Z score is reported as 0.4.

As for `Cc1n[nH]c([C@@H]2CN(C(=O)c3cccc4[nH]ccc34)C[C@H]2C(N)=O)n1`, the “% Inhibition” value is reported as -7% and the Z score amounted to 1.16.

For `CN(c1cccc(NC(=O)Cc2ccc(Cl)cc2F)c1)S(C)(=O)=O`, the “% Inhibition” value is -23% and the Z score is reported as 2.01.

As for `O=C(C1CCN(C(=O)[C@H]2CCC(=O)N(C3CCCCCC3)C2)CC1)N1CCCC1`, the “% Inhibition” value is -3% and the Z score is 0.56.

As to `CCN(c1ccc(C(=O)N[C@H](C)C(=O)NCCN2CCCCC2)cc1)C(C)C`, the “% Inhibition” value is listed as -4% and the Z score is given as 0.74.

As for `CCCCn1ccnc1C(=O)c1ccc(S(=O)(=O)N2CCOCC2)cc1`, the “% Inhibition” value is given as -7% and the Z score was found to be 1.11.

With `CC[C@H]1CC[C@H](C(=O)Nc2cnn(CCOC)c2)CC1`, the “% Inhibition” value was 2% and the Z score was -0.22.

On to `Cc1cc(C)nc(NC(=O)c2cccc(C(=O)Nc3cc(C)cc(C)n3)n2)c1`, for which the “% Inhibition” value is recorded as -4% and the Z score was 0.42.

As to `CN(Cc1noc(C2CC2)n1)[C@@H](/C=C/c1ccccc1)C(=O)O`, the “% Inhibition” value came out at 2% and the Z score is recorded as -0.42.

With `CCCOc1c(CN(C)[C@@H]2CCC[C@H]2O)cccc1OCC`, the “% Inhibition” value is given as -5% and the Z score stood at 0.79.

With `Cc1ccc(-c2nc(-c3ccc4c(c3)ncn4CCN3CCOCC3)no2)c(C)c1`, the “% Inhibition” value was -3% and the Z score is on record as 0.49.

Turning to `O=C1CN2C(=O)[C@]3(CCN(CC4CC4)[C@H]3c3cccc(c3)OCCCN1)c1ccccc12`, the “% Inhibition” value was -24% and the Z score amounted to 3.01.

Regarding `O=C(c1cnccn1)N1CC[C@H](c2nc3ccccc3o2)C1`, the “% Inhibition” value came out at 7% and the Z score is -0.91.

With `CC(C)(C)OC(=O)N1CC2CCC(NC(=O)CC#N)CC2C1` (centres undefined), the “% Inhibition” value is on record as -21% and the Z score is recorded as 2.79.

With `CN(CC1CCOCC1)C(=O)CC1CCCCC1`, the “% Inhibition” value is given as -1% and the Z score is 0.22.

For the compound `O=C(O)c1csc(S(=O)(=O)Nc2ccc(-n3cccn3)c(Cl)c2)c1`, the “% Inhibition” value is recorded as -1% and the Z score is 0.19.

In the case of `CC(=O)Nc1ccc(C2OC(=O)N(Cc3cccc(F)c3)C2C(=O)NCC2CCCO2)cc1` (centres undefined), the “% Inhibition” value is reported as -9% and the Z score was found to be 1.12.

As for `Cc1ccc(S(=O)(=O)NCC(C)C)cc1C`, the “% Inhibition” value is 1% and the Z score is given as -0.18.

`O=C(O)[C@H]1CC(=O)N(c2ccc3nc(-c4cccc(F)c4)oc3c2)C1`: the “% Inhibition” value worked out at 33% and the Z score is recorded as -4.8.

As to `CCc1ccc(N2C[C@@H](c3nc(COc4cccc(F)c4)no3)CC2=O)cc1`, the “% Inhibition” value was -8% and the Z score came to 1.15.

For `COc1cccc2c1Oc1c(c(=O)n(-c3ccccc3)n1CC(=O)Nc1ccc(C)cc1Cl)C2`, the “% Inhibition” value came to 2% and the Z score is listed as -0.34.

For the compound `CCc1noc(CCNC(=O)Nc2cc(C)nn2C2CCCCC2)n1`, the “% Inhibition” value is -3% and the Z score is 0.5.

Turning to `O=C(Nc1cc(S(=O)(=O)N2CCOCC2)ccc1Oc1ccc(F)cc1)c1ccnc2ncnn12`, the “% Inhibition” value was -18% and the Z score turned out to be 1.56.

In the case of `c1ccc(-n2nnc3c2CCNC3)cc1`, the “% Inhibition” value was -12% and the Z score is 1.33.

For `CCn1ccc2ccc(CCC(=O)NC(C)(C)C)cc21`, the “% Inhibition” value is on record as 2% and the Z score is on record as -0.21.

For `NS(=O)(=O)c1ccc(CCN[C@H]2CC(=O)N(CCc3ccccc3)C2=O)cc1`, the “% Inhibition” value is -9% and the Z score stood at 1.57.

On to `CC1(C)NC(=O)N(CCN2CCCCCC2)C1=O`, for which the “% Inhibition” value amounted to 4% and the Z score was -0.75.

As for `Cc1nn(C)c2nc(N3CCN(CCOc4ccccc4)CC3)sc12`, the “% Inhibition” value was -13% and the Z score worked out at 1.27.

Regarding `O=C(NCc1ccc(N2CCOCC2)cc1)c1cc[nH]c1[C@H]1CCCNC1`, the “% Inhibition” value is listed as -16% and the Z score came out at 1.82.

For the compound `CCn1cc(S(=O)(=O)N[C@H]2CCOC[C@@H]2OCC2CC2)cn1`, the “% Inhibition” value is reported as -4% and the Z score stood at 0.75.

As for `C#CCNC(=O)C[C@H]1CCCN1C(=O)OC(C)(C)C`, the “% Inhibition” value is -6% and the Z score was 1.24.

For the compound `COc1ccc([C@@]2(C)NC(=O)N(CC(=O)N(c3ccccc3)C(C)C)C2=O)cc1OC`, the “% Inhibition” value is listed as -11% and the Z score turned out to be 1.16.

In the case of `Cc1ncc(C(=O)Nc2ccc(-n3nn[nH]c3=O)cc2)s1`, the “% Inhibition” value is reported as 3% and the Z score is on record as -0.42.

In the case of `Cc1cc(OCC(=O)NC(N)=O)ccc1N`, the “% Inhibition” value was found to be 29% and the Z score is on record as -3.23.

For the compound `CCc1nc(C)c(CC(=O)N2CCN(c3ccccc3C)C[C@@H]2C)c(=O)[nH]1`, the “% Inhibition” value is listed as -10% and the Z score amounted to 0.9.

For the compound `Cc1oc(-c2ccno2)cc1S(=O)(=O)N1CCCc2ccccc21`, the “% Inhibition” value is -6% and the Z score is on record as 0.7.

Take `CC(=O)Nc1nc(CN[C@@H](C2CCCC2)C(F)(F)F)cs1`: the “% Inhibition” value is recorded as -13% and the Z score worked out at 1.91.

As to `O=C(O[C@@H](c1ccccc1)c1cccnc1)c1ccnc(C2CC2)n1`, the “% Inhibition” value was -9% and the Z score was found to be 1.22.

With `Cc1cccc(NC(=O)N2C3CCC2CC(Oc2cccnc2)C3)c1` (centres undefined), the “% Inhibition” value is 11% and the Z score was -1.67.

Turning to `CN1C(=O)CN(Cc2cc3c(cc2Cl)OCO3)C(=O)c2ccccc21`, the “% Inhibition” value was -10% and the Z score stood at 1.35.

Turning to `O=C(O)c1cc(C2CC2)nc2c1c(C1CC1)nn2-c1ccccc1F`, the “% Inhibition” value is -9% and the Z score was determined as 1.28.

In the case of `CC1CN(C(C)c2nnc(-c3ccc4ccccc4c3)o2)CC1O` (centres undefined), the “% Inhibition” value is -3% and the Z score is 0.54.
